We go through 46 molecules from article PMC4336329 (PLoS ONE, 2015).

Among all 310,000 compounds or so, about 2,200 (0.71%) showed an effect of 50% or more. Effects have a minus sign here. This is one part of the list.

Chain of human ether-à-go-go-related gene (hERG) potassium channel (Q12809 whole entry, looked up): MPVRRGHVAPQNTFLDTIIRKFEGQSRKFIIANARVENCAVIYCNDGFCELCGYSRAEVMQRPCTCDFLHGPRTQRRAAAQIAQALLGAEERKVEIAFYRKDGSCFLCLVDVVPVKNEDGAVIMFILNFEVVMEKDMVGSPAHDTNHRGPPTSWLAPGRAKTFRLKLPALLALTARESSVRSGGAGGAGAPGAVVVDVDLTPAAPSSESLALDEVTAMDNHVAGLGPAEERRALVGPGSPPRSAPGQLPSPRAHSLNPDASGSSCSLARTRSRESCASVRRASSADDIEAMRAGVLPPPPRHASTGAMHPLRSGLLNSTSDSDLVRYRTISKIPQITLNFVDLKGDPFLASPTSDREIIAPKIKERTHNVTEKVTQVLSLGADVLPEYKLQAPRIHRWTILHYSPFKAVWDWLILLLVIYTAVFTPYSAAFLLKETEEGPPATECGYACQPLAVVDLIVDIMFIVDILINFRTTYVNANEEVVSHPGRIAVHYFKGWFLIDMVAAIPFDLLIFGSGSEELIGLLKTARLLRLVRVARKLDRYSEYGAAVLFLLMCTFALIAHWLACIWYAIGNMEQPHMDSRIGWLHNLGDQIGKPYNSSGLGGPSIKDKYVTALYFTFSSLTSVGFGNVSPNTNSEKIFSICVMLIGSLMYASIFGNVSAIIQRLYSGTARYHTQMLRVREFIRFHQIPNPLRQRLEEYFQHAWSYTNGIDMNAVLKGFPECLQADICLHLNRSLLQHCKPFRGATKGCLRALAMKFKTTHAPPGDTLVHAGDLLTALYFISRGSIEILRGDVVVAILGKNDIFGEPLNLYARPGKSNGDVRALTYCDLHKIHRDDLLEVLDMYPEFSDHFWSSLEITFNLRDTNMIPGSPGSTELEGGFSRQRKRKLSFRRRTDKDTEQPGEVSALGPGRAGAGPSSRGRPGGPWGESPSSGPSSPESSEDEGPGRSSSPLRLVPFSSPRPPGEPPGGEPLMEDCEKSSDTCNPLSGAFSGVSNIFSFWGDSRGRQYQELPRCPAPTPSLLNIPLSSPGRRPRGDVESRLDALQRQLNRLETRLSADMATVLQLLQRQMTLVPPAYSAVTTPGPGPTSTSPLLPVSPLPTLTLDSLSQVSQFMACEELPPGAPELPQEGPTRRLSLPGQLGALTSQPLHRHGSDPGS

The experiment concerns the target human ether-à-go-go-related gene (hERG) potassium channel (human, UniProt Q12809). Briefly: primary screen, population patch clamp on CHO cells stably expressing hERG.
On to `CCOc1ccc(CNc2ccc3c(c2)ncn3C)cc1`, for which the “hERG current change (%, negative = inhibition) at 1uM” value was -26.9%. On to `N#CCNc1ccc([N+](=O)[O-])cc1C#N`, for which the “hERG current change (%, negative = inhibition) at 1uM” value amounted to 12.6%.

With `CC1(C)CC(=O)C=C(c2cccc3c2Oc2ccccc2S3)C1`, the “hERG current change (%, negative = inhibition) at 1uM” value worked out at 17.2%. Next, `CC(C)n1cc(C(=O)NC2CC(C)(C)Cc3c2cnn3-c2ccccc2)cn1` (stereo not shown): 26.4%; `O=C(CCn1c(=O)oc2ccc(Cl)cc21)NCCCN1CCOCC1`: 12.1%. `C=CCSc1nnc(-c2ccc(Cl)cc2Cl)o1`: the “hERG current change (%, negative = inhibition) at 1uM” value was 7.32%. Take `O=C(CN1CC(=O)Oc2ccccc21)OCC(=O)c1cccc(Br)c1`: the “hERG current change (%, negative = inhibition) at 1uM” value was found to be 17.3%. `CCN(CC)S(=O)(=O)c1ccc(N2CCOCC2)c(NC(=O)c2cccc3ccccc23)c1`: the “hERG current change (%, negative = inhibition) at 1uM” value was 16.9%. Next, `CCOC(=O)/C(C#N)=C/c1ccc(OCC(=O)Nc2ccc(OC)cc2)c(OC)c1`: 16.1%; `Cc1sc2nc(CSc3nc4ccccc4c(=O)n3CCCN3CCOCC3)[nH]c(=O)c2c1C`: 0.687%; `O=C(COC(=O)Cc1ccc(Br)cc1)NCC1CCCCC1`: 6.1%. The same measure for `COC(=O)c1ccc(C2C3=C(Nc4nnnn42)c2ccccc2OC3)cc1` (stereo not shown): 8.93%; for `CCOC(=O)C1CCN(C(=O)CN2C(=O)c3ccccc3S2(=O)=O)CC1`: 5.61%. `N#C/C(=C\c1ccccc1)C(=O)N1CCC(C(N)=O)CC1`: the “hERG current change (%, negative = inhibition) at 1uM” value stood at 15.5%. Next, `Cc1ccc(C)c(NC(=O)C(OC(=O)c2ccc(NC(=O)CC#N)cc2)c2ccccc2)c1` (stereo not shown): 4.96%; `Cc1cc(C(C)(C)C)oc1C(=O)N(CC(=O)NC1CCCC1)c1cccc(C(F)(F)F)c1`: 14.8%; `CC(=O)NCCCc1nc2ccccc2n1Cc1c(F)cccc1Cl`: -10.6%. The same measure for `NC(=O)C1CCN(C(=O)C(Cc2ccccc2)NC(=O)c2ccccc2)CC1` (stereo not shown): 13%; for `O=C(Cn1[nH]c(=O)c2ccccc2c1=O)Nc1ccc(-c2nnc3n2CCCCC3)cc1`: 15.1%. Consider `O=C1NC(c2cccs2)Nc2sc3c(c21)CCCC3` (stereo not shown), for which the “hERG current change (%, negative = inhibition) at 1uM” value is listed as 8.51%. Next, `CC(=O)Nc1ccc(-c2csc(NCc3ccccc3)n2)cc1`: 11.8%; `C=CCCCCCCCCc1nc(SCC(=O)O)n[nH]1`: 5.52%. Next, `COc1ccc(NC(=O)C2CCN(C(=O)NC3CCCCC3)CC2)c(OC)c1`: -32.6%; `O=[N+]([O-])c1cc(Cl)ccc1Nc1ccccc1`: 9.54%; `Cc1cc(C)nc(SCCS(=O)(=O)Cc2ccccc2)n1`: 6.71%.

As to `COc1ccc(C(=O)COC(=O)c2cc(=O)[nH]c3ccccc23)c(OC)c1`, the “hERG current change (%, negative = inhibition) at 1uM” value is reported as 7.57%. As for `O=C1OCC2=C1C(c1ccccc1)CC(=O)N2c1cccc(F)c1` (stereo not shown), the “hERG current change (%, negative = inhibition) at 1uM” value is given as 7.95%. The same measure for `COc1cccc(/C=N/Nc2nc(Nc3ccc([N+](=O)[O-])cc3)nc(N3CCCC3)n2)c1O`: 15.3%; for `CCc1ccccc1NC(=O)CN1C(=O)c2ccccc2S1(=O)=O`: 15.1%; for `COc1ccccc1C(=O)Nc1ccc(Br)c2cccnc12`: 17.5%. On to `CCOC(=O)c1cc(NC(=O)Cc2ccc(S(=O)(=O)N3CCOCC3)s2)cc(C(=O)OCC)c1`, for which the “hERG current change (%, negative = inhibition) at 1uM” value was found to be 2.08%. The same measure for `Cc1ccc(C(=O)N2CCCC(CCC(=O)N3CCN(c4ccccn4)CC3)C2)cc1C` (stereo not shown): -1.03%.

On to `CC(=O)C1C(c2ccc3ncccc3c2)NC(=O)NC1(O)C(F)(F)F` (stereo not shown), for which the “hERG current change (%, negative = inhibition) at 1uM” value is given as 9.58%.

For the molecule `Cn1c(SCC(=O)N2CCCc3ccccc32)nnc1-c1cccs1`, the “hERG current change (%, negative = inhibition) at 1uM” value is on record as -2.76%. Next, `C=CCn1cccc(C(=O)Nc2cc(OC)cc(OC)c2)c1=O`: 0.758%. Next, `Cc1ccc(NC(=O)CC2CCCC2)c(Br)c1`: 11.4%; `O=C(NC(=S)NCC1CCCO1)c1cccc([N+](=O)[O-])c1` (stereo not shown): 5.69%; `CCc1ccc(C(N)=S)cc1`: 10.2%. The same measure for `Nc1ccc(OCCCc2c(N)nc(N)nc2N)cc1`: 9.01%; for `CCCCC(C)n1[nH]c(=O)c2c(C)cc(C)nc21` (stereo not shown): 1.59%; for `CCCSc1nc(O)c(C2OC(=O)c3c2ccc(OC)c3OC)c(=O)n1C` (stereo not shown): 10%. Regarding `O=C1CCCC(O)=C1N=Nc1ccc(C(=O)O)cc1`, the “hERG current change (%, negative = inhibition) at 1uM” value came out at 9.28%. For the molecule `Cc1ccccc1CSc1nnc(-c2cnccn2)n1C`, the “hERG current change (%, negative = inhibition) at 1uM” value is listed as 18%. Next, `O=C(CC12CC3CC(CC(C3)C1)C2)NCc1ccco1`: 10.2%; `COCCNC(=O)C(OC(=O)c1cccs1)c1ccccc1` (stereo not shown): 13.5%; `O=C(CN1C(=O)NC2(CCCCC2)C1=O)N1CCN(C(=O)c2cccs2)CC1`: -1.87%.
